Laboratory results as given in patent US20230192883A1 (LEGEND BIOTECH USA, published 2023).

T1: human CD19 on cells (Raji, Daudi, Nalm.6, K562-CD19) (human, UniProt P15391 20-556)
T1 construct: whole, on cells; also called CD19 receptor; CD19 positive cells
T1 sequence (looked up): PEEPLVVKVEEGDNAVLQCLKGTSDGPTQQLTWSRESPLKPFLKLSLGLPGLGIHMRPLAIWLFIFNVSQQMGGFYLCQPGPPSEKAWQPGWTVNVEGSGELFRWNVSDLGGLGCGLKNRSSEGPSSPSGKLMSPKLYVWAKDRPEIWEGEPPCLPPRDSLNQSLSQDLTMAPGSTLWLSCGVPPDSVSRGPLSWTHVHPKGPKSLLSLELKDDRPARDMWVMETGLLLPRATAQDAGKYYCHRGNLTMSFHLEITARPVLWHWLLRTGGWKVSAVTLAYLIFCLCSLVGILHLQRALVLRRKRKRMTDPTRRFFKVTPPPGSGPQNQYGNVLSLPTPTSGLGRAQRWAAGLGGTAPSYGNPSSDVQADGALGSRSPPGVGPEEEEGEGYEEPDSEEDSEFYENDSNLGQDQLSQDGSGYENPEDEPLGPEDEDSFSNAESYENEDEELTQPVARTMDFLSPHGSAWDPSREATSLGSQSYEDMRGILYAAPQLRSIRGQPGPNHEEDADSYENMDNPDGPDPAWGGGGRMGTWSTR


Target: T1, human CD19 on cells (Raji, Daudi, …)
Experiment: flow cytometry on Raji cells (CD19 positive), detection with PE anti-human IgG1 Fc

Row | EC50 (read off the curve) | Binder
1 | ~200 pM | VHH-083-huIgG1Fc mAb (Fc fusion, No linker between them is stated; also called anti-CD19 VHH-huIgG1Fc mAb; VHH-083-huIgGlFc mAb) QVQLVESGGGSVQAGGSLRLSCGASGNINSRNCMGWFRQAPGKEREGVAAIGQVTGRSYYVDSVKGRFTISLDNAKNTLYLQMNTLKPEDTAMYYCAAAPGCLLSALRSADYRNWGQGTQVTVSS[human IgG1 Fc left out]
2 | ~200 pM | VHH-131-huIgG1Fc mAb (Fc fusion, No linker is stated; also called anti-CD19 VHH-huIgG1Fc mAb) QVQLVESGGGSVQAGGSLRLSCGASGNINSRNCMGWFRQAPGKEREGVAGIGQVTGRSYYADSVKGRFTISLDNAKNMLYLQMNTLKPEDTAMYYCAAAPGCLLSALRSADYRNWGQGTQVTVSS[human IgG1 Fc left out]
